Tested on: S180 sarcoma
Design: species or system Kunming mice
Settings: mouse, in vivo, iv

| Compound | anti-tumor efficacy |
| --- | --- |
| C=C1CCC2[C@](C)(CC[C@@H](O)[C@@]2(C)CO)C1/C=C/C1=CCOC1=O (some centres unmarked) [Example 1, 11,12-dedihydro-14-deoxyandrographolide] | statistically significant |
| C=C1CCC2C(C)(CO)C(O)CCC2(C)C1CC(C[N+](=O)[O-])C1=CCOC1=O (centres unmarked) [Example 11, 12-nitromethyl-14-deoxyandrographolide] | statistically significant |
| C=C1CCC2C(C)(CO)C(O)CCC2(C)C1/C=C/C1=CC(=C\c2ccoc2)/OC1=O (centres unmarked) [Example 39, 11,12-dedihydro-14-deoxy-(E)-15-(furan-3-ylmethylene) andrographolide] | statistically significant |
| CN1CCN(C(=O)CCC(=O)OC2CCC3(C)C4CC(C5=CCOC5=O)C=C4CCC3C2(C)CO)CC1 (centres unmarked) [Example 108] | statistically significant |
| CC(NC1CC2[C@](C)(CC[C@@H](O)[C@@]2(C)CO)C(/C=C/C2=CC(=C\c3ccc(N(C)C)cc3)/OC2=O)C12CO2)C(=O)NC1=NCC=N1 (some centres unmarked) [Example 210] | statistically significant |
